According to US20200347131A1 (SICHUAN KELUN BIOTECH BIOPHARMACEUTICAL, published 2020):

T1: human LAG-3 (His tag) (human, UniProt P18627 23-450, limits assumed)
T1 construct: also called LAG-3-His antigen; not shown: His tag
T1 sequence (looked up): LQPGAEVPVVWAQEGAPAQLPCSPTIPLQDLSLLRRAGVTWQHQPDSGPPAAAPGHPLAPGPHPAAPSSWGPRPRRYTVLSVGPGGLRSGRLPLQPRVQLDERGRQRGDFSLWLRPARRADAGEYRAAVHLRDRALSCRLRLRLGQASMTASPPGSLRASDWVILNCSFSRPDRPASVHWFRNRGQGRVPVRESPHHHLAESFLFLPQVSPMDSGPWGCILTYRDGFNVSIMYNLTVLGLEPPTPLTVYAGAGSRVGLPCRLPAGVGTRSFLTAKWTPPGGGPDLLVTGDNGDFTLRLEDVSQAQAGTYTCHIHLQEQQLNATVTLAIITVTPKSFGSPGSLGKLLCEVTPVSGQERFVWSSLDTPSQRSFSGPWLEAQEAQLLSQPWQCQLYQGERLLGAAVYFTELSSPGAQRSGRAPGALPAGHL

T2: human LAG-3 on CHO cells (CHO-hLAG-3) (human, UniProt P18627 23-525)
T2 construct: whole, on cells; Cells prepared by Kelun Biotech Co., Ltd; also called CHO cells expressing human LAG-3
T2 sequence (looked up): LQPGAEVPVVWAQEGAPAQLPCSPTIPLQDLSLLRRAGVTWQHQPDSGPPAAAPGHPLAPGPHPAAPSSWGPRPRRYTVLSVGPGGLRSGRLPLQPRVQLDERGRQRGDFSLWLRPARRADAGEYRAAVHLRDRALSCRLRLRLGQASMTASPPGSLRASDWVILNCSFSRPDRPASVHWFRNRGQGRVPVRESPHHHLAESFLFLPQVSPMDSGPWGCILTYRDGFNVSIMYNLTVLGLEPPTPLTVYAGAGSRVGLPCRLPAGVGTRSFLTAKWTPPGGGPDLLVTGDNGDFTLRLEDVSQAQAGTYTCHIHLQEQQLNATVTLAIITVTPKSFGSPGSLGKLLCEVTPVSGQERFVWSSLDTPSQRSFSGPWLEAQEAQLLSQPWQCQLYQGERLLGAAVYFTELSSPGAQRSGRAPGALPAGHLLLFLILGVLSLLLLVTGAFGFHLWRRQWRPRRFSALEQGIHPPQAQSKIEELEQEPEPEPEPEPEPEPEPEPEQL

B1: humanized antibody AB12T8 (antibody, human IgG1, kappa)
heavy: DVQLQESGPGLVKPSQTLSLTCTVTGYSITSFYSWHWIRQFPGKGLEWMGAIQYSGDTDSNPSLKSRITITRDTSENQLFLKLSSVTAADTATYYCARSPYDSDPYYVMDYWGQGTLVTVSSASTKGPSVFPLAPSSKSTSGGTAALGCLVKDYFPEPVTVSWNSGALTSGVHTFPAVLQSSGLYSLSSVVTVPSSSLGTQTYICNVNHKPSNTKVDKKV[human IgG1 Fc with L234A L235A G237A (EU numbers) not printed]
light: DIVMSQSPDSLAVSLGERITMTCKSSQSLLYSGNQKNYLAWYQQKPGQSPTLLIYWASTRDSGVPDRLTGSGSGTDFTLTISSVQAEDVAVYYCQQYYAYPYTFGQGTKLEIKRTVAAPSVFIFPPSDEQLKSGTASVVCLLNNFYPREAKVQWKVDNALQSGNSQESVTEQDSKDSTYSLSSTLTLSKADYEKHKVYACEVTHQGLSSPVTKSFNRGEC
notes: Humanized by surface remodeling
B2: humanized antibody AB12T9 (antibody, human IgG1, kappa)
heavy: DVQLQESGPGLVKPSQTLSLTCTVTGYSITSFYSWHWIRQFPGKGLEWMGAIQYSGDTDSNPSLKSRITITRDTSENQLFLKLSSVTAADTATYYCARSPYDSDPYYVMDYWGQGTLVTVSSASTKGPSVFPLAPSSKSTSGGTAALGCLVKDYFPEPVTVSWNSGALTSGVHTFPAVLQSSGLYSLSSVVTVPSSSLGTQTYICNVNHKPSNTKVDKKV[human IgG1 Fc with changes not printed]
light: DIVMSQSPDSLAVSLGERITMTCKSSQSLLYSGNQKNYLAWYQQKPGQSPTLLIYWASTRDSGVPDRLTGSGSGTDFTLTISSVQAEDVAVYYCQQYYAYPYTFGQGTKLEIKRTVAAPSVFIFPPSDEQLKSGTASVVCLLNNFYPREAKVQWKVDNALQSGNSQESVTEQDSKDSTYSLSSTLTLSKADYEKHKVYACEVTHQGLSSPVTKSFNRGEC
notes: as for B1

Experiments:
[1] = target: T1, human LAG-3 (His tag); experiment: BLI (ForteBio Octet), LAG-3 His on Ni-NTA sensor
Procedure: The binding affinity constant of the purified murine monoclonal antibody #27 to the antigen was determined by Bio-Layer Interferometry (BLI) using the instrument of a PALL company's ForteBio Octet RED & QK system.

[2] = target: T2, human LAG-3 on CHO cells (CHO-hLAG-3); experiment: flow cytometry, FITC-labelled antibody on CHO-hLAG-3 cells
Procedure: 5×10⁵ cells per tube of CHO-cynoLAG-3 and CHO-hLAG-3 cells were taken respectively. […] The dilutions were mixed with cells at a ratio of 1:1, and incubated for 30 minutes at room temperature, followed by washing 3 times with pre-cooled PBS and detection by flow cytometry (Benckman, model CytoFlex). The signal values were input into GraphPad Prism to calculate the EC₅₀ values.

| Binder | Kd [1] | koff [1] | kon [1] | EC50 [2] |
| --- | --- | --- | --- | --- |
| B1 | 120 pM | 1.3e-05 s⁻¹ | 108000 M⁻¹ s⁻¹ | 13300 pM |
| B2 | 298 pM | 5.4e-05 s⁻¹ | 181000 M⁻¹ s⁻¹ | – |
